Drawing on publication PMC12136788, this text covers binding signal for 22 molecules.

The list shows a part of the results.

The chains are these.
T1: UNK ZnF1-6 (called full-length) (human, UniProt Q9C0B0 30-357)
T1 sequence: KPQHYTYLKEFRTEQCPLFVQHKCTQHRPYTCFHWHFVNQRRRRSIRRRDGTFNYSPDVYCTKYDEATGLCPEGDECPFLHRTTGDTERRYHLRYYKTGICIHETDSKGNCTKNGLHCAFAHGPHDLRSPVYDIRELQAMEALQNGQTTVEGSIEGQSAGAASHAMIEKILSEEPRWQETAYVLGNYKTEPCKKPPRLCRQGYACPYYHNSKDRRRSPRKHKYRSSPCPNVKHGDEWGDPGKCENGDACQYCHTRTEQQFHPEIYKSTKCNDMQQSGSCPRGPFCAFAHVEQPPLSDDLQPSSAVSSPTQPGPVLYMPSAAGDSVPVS

B1: ENSG00000070961:be:win_2751|CDS|ENSG00000070961|bound_else_gene|NA|bound_elsewhere_windowed (ssRNA)
RNA: GGGAGUUCUACAGUCCGACGAUCUGGUAGAAAUAAGCCUCUCAUCUCACGUACAAUGAUGAAGAAUAUUUUGGGUCAUGCAUUCUAUCAACUUGUAGUAGUCUUUACACUCUUAUUUGCUGGAGAAAAGUUUUUUGACAUUGACAACAGAGGAUUGAGCAUCA
B2: chr1:165910223:165910324:+|3pUTR|ENSG00000143179|unk|FALSE|unique (ssRNA)
RNA: GGGAGUUCUACAGUCCGACGAUCCCAGCAUUUGGCCAACUCUGUAUCUGAACUUGAGCUUUCUAUGGAACAAACAAUGGUCUUAGUUUUUUAAGAGCCUCUGGGUCUCUGAUUCCAUGGAGAGUCAGGAGUAGAAUUAGUGGACAACAGAGGAUUGAGCAUCA
B3: chr7:44624349:44624495:+|CDS|ENSG00000105953|unk|FALSE|unique (ssRNA)
RNA: GGGAGUUCUACAGUCCGACGAUCAGGCCAUUGACGGCUUCCCAGACUGUUAAGACAUUUUCACAAAACAGACCAGCAGCAGCUAGGACAUUUCAACAGAUUCGGUGCUAUUCUGCACCUGUUGCUGCUGAGCCCUUUCUCAGUCAACAGAGGAUUGAGCAUCA
B4: chr3:180614007:180614920:-|three_prime_utr|ENSG00000284862|control|control|control (ssRNA)
RNA: GGGAGUUCUACAGUCCGACGAUCUUGUAAACACAAAAACAAAAAUAUACUUUAAAAUACAAAACGACCCAACACAUUUUAUCUAGUGGAAAGUGUAAAAACUUAGUGGUAAGUGUAAAAACUGAUAGUUUUAAAAAAAAAGGACAACAGAGGAUUGAGCAUCA
B5: chr5:6668475:6668576:+|3pUTR|ENSG00000145545|unk|total|mutant (ssRNA)
RNA: GGGAGUUCUACAGUCCGACGAUCAUUUUUUCUAAUUUCAAAUUUACCUCUUUUGGCUAUGUCUUGCCAAGUGUGUAUGAGACCCGACUUUACAACUGUCUUUGAUGGCAUUUUCAGAACAAUAAAUGUCACAAUCCCUUCUAUCAACAGAGGAUUGAGCAUCA
B6: chr1:235977234:235977335:-|3pUTR|ENSG00000116962|msi1|total|mutant (ssRNA)
RNA: GGGAGUUCUACAGUCCGACGAUCGUCUAAGACCCCCAUUAUAAUAUUCAUGCGCUGCUUUUUCAUCAAAACCUACCCUGUCCCCGAGAUCUAUGGGCAUUUGGUGGAUGAUAAUGAGCAGCCCCUCCCAGACCGAAUGUCAAUCAACAGAGGAUUGAGCAUCA
B7: chr12:95514132:95514176:+|3pUTR|ENSG00000111142|msi1_unk|total|mutant (ssRNA)
RNA: GGGAGUUCUACAGUCCGACGAUCCUUUUAAAUGCUAACUGUUUUUCCCCUUCCUGUCCCGGAAAAUGCUAUAAAGCUCAAAUCCGUCCGGAAUGACUUAUACGUUUUGUUUUGAAUACCUAAGAGAUACUUUUUGGAUAUUUACAACAGAGGAUUGAGCAUCA
B8: chr20:62294722:62294823:+|3pUTR|ENSG00000130703|unk|total|mutant (ssRNA)
RNA: GGGAGUUCUACAGUCCGACGAUCCGCACACCGCGUCCGUGUCUCCAGGGGGUUCCUUUCUUCUCACACGUCGCGUGUACCCACCGCACUCUUGUGUUUCUGUUUUUCCCAGUAUGCAUGUUUAAAACCGAAGUGACAAGAAUCCAACAGAGGAUUGAGCAUCA
B9: chr11:102867907:102868069:-|CDS|ENSG00000262406|control|control|control (ssRNA)
RNA: GGGAGUUCUACAGUCCGACGAUCACAAACUUGUUCCUCACUGCUGUUCACGAGAUUGGCCAUUCCUUAGGUCUUGGCCAUUCUAGUGAUCCAAAGGCCGUAAUGUUCCCCACCUACAAAUAUGUUGACAUCAACACAUUUCGCCAACAGAGGAUUGAGCAUCA
B10: chr17:81557321:81557422:-|3pUTR|ENSG00000182446|msi1|FALSE|unique (ssRNA)
RNA: GGGAGUUCUACAGUCCGACGAUCAGCAUUUCCCUUACUCUGAAGUUCCGGCAUUCACAUCAUUCAUGUUUUCUUUUGUCUUUUAGCUAAAGGAAAAGCAUUGGCGAUUUGUCUGAUUCUGGUUUUGAGUUACUCUUUGUUCAGCAACAGAGGAUUGAGCAUCA
B11: chr11:35231809:35232301:+|3pUTR|ENSG00000026508|msi1|FALSE|unique (ssRNA)
RNA: GGGAGUUCUACAGUCCGACGAUCACAACACCAAGAAUUGAUUUUGUAGCCAACAUUCAUUCAAUACUGUUAUAUCAGAGGAGUAGGAGAGAGGAAACAUUUGACUUAUCUGGAAAAGCAAAAUGUACUUAAGAAUAAGAAUAACAACAGAGGAUUGAGCAUCA
B12: ENSG00000198589:be:win_6351|CDS|ENSG00000198589|bound_else_gene|NA|bound_elsewhere_windowed (ssRNA)
RNA: GGGAGUUCUACAGUCCGACGAUCGCUGCAUGGAAAAUGGCUGUUCACAGAGAUACGAUCAAUCUUUUCUCGUCGUUAUCUUUUGCAAAAUACAGCCCUGGAGAUCUUUAUGGCAAACAGAGUUGCUGUGAUGUUCAACUUCCCCAACAGAGGAUUGAGCAUCA
B13: chr11:35230299:35231094:+|3pUTR|ENSG00000026508|msi1|total|mutant (ssRNA)
RNA: GGGAGUUCUACAGUCCGACGAUCGCCUGGGGAGUCCCUCAAAAGGUUAAAGGGAUUCCCAUCAUUGGAAUCUUAUCACCAGACCGGCAAGUUUAUGACCAAACAAGAGAGUACUGGCUUUAUCCUCUAACCUCAUAUUUUCUCCAACAGAGGAUUGAGCAUCA
B14: chr1:229632307:229632408:+|CDS|ENSG00000135763|unk|total|mutant (ssRNA)
RNA: GGGAGUUCUACAGUCCGACGAUCAUUUUAUAAGAAAAAGCUUGAACUGAAGGAAGAUAUUGUUGAAAGGCUUUGGAUCUAUACCGAUAACAUUUUACACCGCAGAAAAUUGCAGAAUCUCCUCAAGAAUGGAAAGACCAUUAACAACAGAGGAUUGAGCAUCA
B15: ENSG00000198589:be:win_3801|CDS|ENSG00000198589|bound_else_gene|NA|bound_elsewhere_windowed (ssRNA)
RNA: GGGAGUUCUACAGUCCGACGAUCUCAACCUCAUCGACAUGUGCUUGAGAUAUCAAGGCAACAUGAGCAGCCAGGGCAAGGAAUAGCACCAGAUGCAGUUAAUGGACAAAGGAGGGAUUCCAGAUCUACUGUGUUUCGUAUUCCCAACAGAGGAUUGAGCAUCA
B16: chr20:23354638:23354749:+|3pUTR|ENSG00000132661|unk|total|mutant (ssRNA)
RNA: GGGAGUUCUACAGUCCGACGAUCAAGUUCCCGGAGUCCCUUUCCUGAAUAUAUACUUGUUUGUCACCGUUUCCUUUUCAAAGCCGUAAACUUUUCUAUUUUUCUACUUGCCCAGCCGAGACUCUGAUUCUGGAAAUUCUGACACAACAGAGGAUUGAGCAUCA
B17: ENSG00000198589:be:win_3551|CDS|ENSG00000198589|bound_else_gene|NA|bound_elsewhere_windowed (ssRNA)
RNA: GGGAGUUCUACAGUCCGACGAUCCAUCAGGGUCUUCAGCUAUGUCACCAGAAACUACUGUUUCCCAAAUAGCUGUAGAAUCAGACCUUGGUCAGAUGCUGGAGGAAGGGAAGAAAGCAACUAACCUCACUAGAGAAACCAAAUCAACAGAGGAUUGAGCAUCA
B18: chr17:59694590:59694691:+|3pUTR|ENSG00000141367|msi1|total|mutant (ssRNA)
RNA: GGGAGUUCUACAGUCCGACGAUCCUUGUGUGUGUUUACUAACCCUUCCCUGAGGUUUGUGUAUGUUGGAUAUUGUGGUGUUUCCGAUCACUGAGUGUACAGAAGAGAGAAAUUCAAACAAAAUAUUGCUGUUCUUCAGUUUUGCAACAGAGGAUUGAGCAUCA
B19: chr5:133076644:133076819:+|CDS|ENSG00000170606|unk|FALSE|unique (ssRNA)
RNA: GGGAGUUCUACAGUCCGACGAUCAAAAUUUGAUGAAGUGUUAGUAAAUCACUUCUGUGAAGAAUUUGGGAAGAAAUACAAGCUAGACAUUAAGUCCAAAAUCCGUGCAUUAUUACGACUCUCUCAGGAGUGUGAGAAACUCAACAACAGAGGAUUGAGCAUCA
B20: chr10:73479331:73479449:-|CDS|ENSG00000107758|unk|total|mutant (ssRNA)
RNA: GGGAGUUCUACAGUCCGACGAUCGUUGAUGUUCUGAAGAACCACUUGGUGAAAGAAGGUCGAGCCGAUGAAGAAAUUGCGCUCCGAAUUAUCAAUGAGGGUGCUGCCAUCCUUCGGAGAGAGAAAACCAUGACCGAAGCCGAACAACAGAGGAUUGAGCAUCA
B21: chr4:99204923:99205063:-|CDS|ENSG00000172955|control|control|control (ssRNA)
RNA: GGGAGUUCUACAGUCCGACGAUCGAAGAGCAGACAGCACAUCCCUAAACUGGUUGCUGAUUAUAUGGCAGAGAAGUUGAAUCUAGAUCCACUAAUUACUCAUACUCUGAAUCUUGAUAAAAUCAAUGAAGCAGUUGAAUUAAUCAACAGAGGAUUGAGCAUCA
B22: chr10:110602053:110602155:+|CDS|ENSG00000108055|unk|total|mutant (ssRNA)
RNA: GGGAGUUCUACAGUCCGACGAUCCAGUUUGUAAAUUUCUCCGAGCAGAAAGAAAAGUUAAUAAAGCGUCAAGAAGAGUCCGACCGGGGUUACAAAUCAAUCAUGGAACUGAUGAAUGUACUUGAACUUCGGAAAUAUGAAGCUCAACAGAGGAUUGAGCAUCA

For this assay, the target named is T1, UNK ZnF1-6 (called full-length). Kind of assay: nsRBNS (natural sequence RNA bind-n-seq); RBNS binding buffer (assumed for nsRBNS): 25 mM Tris pH 7.5, 150 mM KCl, 3 mM MgCl2, 0.01% Triton X-100, 500 ug/ml BSA, 20 U/ml SUPERase-In, 4 C; UNK is unkempt and MSI1 is Musashi-1; names of the RNAs are library labels; protein concentration not given here; high values mean tight binding.
For the molecule B1, the binding signal amounted to 0.693 enrichment R.

Turning to B2, the binding signal was found to be 1.37 enrichment R.

In the case of B3, the binding signal turned out to be 0.461 enrichment R.

In turn, B4 returned a binding signal of 1.19 enrichment R.

Molecule B5 registered a binding signal of 0.763 enrichment R.

B6 came in with a binding signal of 1.68 enrichment R.

Turning to B7, the binding signal turned out to be 0.444 enrichment R.

B8 showed a binding signal of 0.496 enrichment R.

B9 showed a binding signal of 0.434 enrichment R.

In turn, B10 showed a binding signal of 0.411 enrichment R.

In turn, B11 showed a binding signal of 0.744 enrichment R.

The molecule B12 gave a binding signal of 0.334 enrichment R.

Molecule B13 registered a binding signal of 0.475 enrichment R.

In turn, B14 had a binding signal of 0.486 enrichment R.

As for B15, the binding signal stood at 0.666 enrichment R.

On to B16, for which the binding signal worked out at 0.594 enrichment R.

Turning to B17, the binding signal turned out to be 0.656 enrichment R.

For B18, the binding signal turned out to be 0.43 enrichment R.

In turn, B19 showed a binding signal of 0.433 enrichment R.

For the molecule B20, the binding signal was found to be 0.662 enrichment R.

With B21, the binding signal was 0.416 enrichment R.

Molecule B22 registered a binding signal of 0.275 enrichment R.
